Data taken from PubChem BioAssay AID504333 (National Center for Advancing Translational Sciences (NCATS), 2011).
“And” between values parts separate entries of the source, which are not always exact repeats. Equal values may be shown once. The whole screen tested about 360,000 compounds, of which about 16,000 (4.4%) were called active. The inconclusive results got no clear call from the source; some entries with a clear call stand among them for comparison. The call rests on the fitted dose curve; in most records, active means well fitted inhibition curve with a large enough effect; inconclusive means small, poorly fitted or top-dose-only effect; inactive means no such curve, though single readings can be large or run the other way. A potency beside an inconclusive call is a rough fit, not a confirmed value.
Further: nearly all actives have a fitted effect of over 60% in size.
On the % scale 0 is the no-effect control and ±100 the full control effect; potency means the concentration at half of the fitted maximal effect; tags describe the fitted curve by direction and shape.

Each compound was assayed against Bromodomain adjacent to zinc finger domain protein 2B (Homo sapiens) (UniProt Q9UIF8) (assay: qHTS Assay for Inhibitors of BAZ2B). Details: AlphaScreen BAZ2B-H3K14Ac peptide displacement; activity change, negative = inhibition: at 114 µM (top of the series) unless noted.
Chain of UniProt Q9UIF8 (Q9UIF8 whole entry, looked up, the tested form may be a part): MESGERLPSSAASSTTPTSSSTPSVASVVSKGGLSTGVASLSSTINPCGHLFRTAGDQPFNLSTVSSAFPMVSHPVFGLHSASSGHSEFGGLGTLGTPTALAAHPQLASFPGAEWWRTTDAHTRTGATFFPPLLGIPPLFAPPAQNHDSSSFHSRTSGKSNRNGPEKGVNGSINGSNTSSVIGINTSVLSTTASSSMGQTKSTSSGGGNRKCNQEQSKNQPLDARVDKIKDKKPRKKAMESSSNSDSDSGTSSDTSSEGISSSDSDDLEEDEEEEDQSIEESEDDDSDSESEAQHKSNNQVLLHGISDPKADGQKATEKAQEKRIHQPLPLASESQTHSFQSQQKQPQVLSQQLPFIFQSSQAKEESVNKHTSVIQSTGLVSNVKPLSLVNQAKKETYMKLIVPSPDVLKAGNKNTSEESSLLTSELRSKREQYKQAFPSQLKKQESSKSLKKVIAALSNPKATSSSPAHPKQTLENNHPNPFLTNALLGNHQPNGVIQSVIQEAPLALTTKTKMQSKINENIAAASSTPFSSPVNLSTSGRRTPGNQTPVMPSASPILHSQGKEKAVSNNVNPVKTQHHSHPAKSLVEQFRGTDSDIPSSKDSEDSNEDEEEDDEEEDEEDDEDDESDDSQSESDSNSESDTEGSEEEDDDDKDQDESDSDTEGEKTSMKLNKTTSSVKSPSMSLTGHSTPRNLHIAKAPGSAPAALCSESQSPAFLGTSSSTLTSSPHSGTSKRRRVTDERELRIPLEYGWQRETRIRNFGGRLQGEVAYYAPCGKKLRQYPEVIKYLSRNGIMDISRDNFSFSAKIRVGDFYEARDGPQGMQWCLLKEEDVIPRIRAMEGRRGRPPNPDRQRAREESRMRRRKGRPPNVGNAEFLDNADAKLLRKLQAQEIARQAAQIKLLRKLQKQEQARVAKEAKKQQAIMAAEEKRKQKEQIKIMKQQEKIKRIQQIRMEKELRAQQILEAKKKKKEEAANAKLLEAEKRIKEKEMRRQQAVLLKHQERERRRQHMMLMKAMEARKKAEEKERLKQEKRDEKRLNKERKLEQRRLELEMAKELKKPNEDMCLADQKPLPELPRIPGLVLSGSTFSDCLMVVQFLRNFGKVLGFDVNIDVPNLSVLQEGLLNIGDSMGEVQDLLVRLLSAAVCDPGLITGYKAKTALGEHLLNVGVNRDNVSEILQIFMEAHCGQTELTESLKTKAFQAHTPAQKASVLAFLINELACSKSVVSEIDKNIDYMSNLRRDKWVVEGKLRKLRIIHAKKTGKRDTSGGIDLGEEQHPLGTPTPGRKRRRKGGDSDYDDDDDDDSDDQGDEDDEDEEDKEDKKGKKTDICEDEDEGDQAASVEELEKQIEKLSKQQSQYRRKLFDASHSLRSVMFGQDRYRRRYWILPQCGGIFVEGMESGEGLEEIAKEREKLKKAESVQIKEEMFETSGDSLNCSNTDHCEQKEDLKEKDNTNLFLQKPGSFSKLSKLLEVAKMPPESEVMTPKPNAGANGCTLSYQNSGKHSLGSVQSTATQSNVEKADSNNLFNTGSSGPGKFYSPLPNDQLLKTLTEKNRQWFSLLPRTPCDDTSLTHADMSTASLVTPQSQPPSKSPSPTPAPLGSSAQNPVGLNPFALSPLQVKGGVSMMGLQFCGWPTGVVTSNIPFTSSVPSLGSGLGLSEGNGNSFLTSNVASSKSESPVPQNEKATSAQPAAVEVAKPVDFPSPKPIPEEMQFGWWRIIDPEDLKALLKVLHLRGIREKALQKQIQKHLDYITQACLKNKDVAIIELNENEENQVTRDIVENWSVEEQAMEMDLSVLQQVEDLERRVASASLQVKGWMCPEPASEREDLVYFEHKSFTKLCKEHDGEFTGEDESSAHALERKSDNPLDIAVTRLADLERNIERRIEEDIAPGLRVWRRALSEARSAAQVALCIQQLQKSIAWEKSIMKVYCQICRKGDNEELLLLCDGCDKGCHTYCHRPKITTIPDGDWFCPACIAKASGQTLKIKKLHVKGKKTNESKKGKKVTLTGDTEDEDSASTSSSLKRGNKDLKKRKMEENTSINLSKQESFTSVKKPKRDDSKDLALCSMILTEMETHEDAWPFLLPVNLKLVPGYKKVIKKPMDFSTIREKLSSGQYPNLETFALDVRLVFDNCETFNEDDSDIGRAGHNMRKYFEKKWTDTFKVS
Procedure, shortened: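 Protein-peptide AlphaScreen: BAZ2B 50 nM, b-H3K14Ac 50 nM, 1x PBS pH 7.4 + 0.01% Tween-20. Preincubation 30 min RT; cpd 30 min RT (top 110 uM); beads 20 min RT, light-protected.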
`CCOc1ccc(-c2cn(-c3ccccc3OC)c(=S)[nH]2)cc1` was tested, and the “activity change, negative = inhibition” value was inactive: -34.9%.
In the case of `CCC(=O)N(CC)C1=C(O)c2ccccc2C(=O)C1=O`, the Potency is reported as active: 44.7 µM.
For `Cc1cccc(CNC(=O)CN2C(=O)CCn3nc(-c4cn(C)c5ccccc45)cc32)c1`, the “activity change, negative = inhibition” value was inactive: -19.2%.
In the case of `CCN1CCc2c(sc(NC(=O)c3ccc(S(=O)(=O)N4CCCCCC4)cc3)c2C(=O)NC)C1`, the Potency is reported as inconclusive: 70.8 µM [inhibitor, single point].
For `Cc1ccccc1CN1CCNC(=O)C1CC(=O)NCCN1CCCCC1=O` (stereo unspecified), the “activity change, negative = inhibition” value was inactive: -5.61%.
In the case of `C/C(=N\NC(=O)c1sccc1C)c1cccnc1`, the “activity change, negative = inhibition” value is reported as inactive: -15.3%.
For `COc1ccc(NC(=O)CCS(=O)(=O)c2ccc3nc(C)sc3c2)cc1OC`, the Potency was inconclusive: 100 µM [inhibitor, single point].
In the case of `Cc1ccc(-n2nc3c(N4CCC(C(=O)NCc5cccc(F)c5)CC4)nnc(C)c3c2C)cc1`, the “activity change, negative = inhibition” value is reported as inactive: -23.2%.
With `COc1ccc(NCCC(O)c2ccc(Cl)cc2)cc1` (stereo unspecified) the Potency was active: 44.7 µM.
With `COc1cccc(C2C=C(c3ccc(Br)s3)Nc3ncnn32)c1OC` (stereo unspecified) the Potency was inconclusive: 50.1 µM [inhibitor, partial curve].
`Cc1cccc2cc(C(c3nnnn3CC3CCCO3)N3CCc4ccccc4C3)c(=O)[nH]c12` (stereo unspecified) was tested, and the “activity change, negative = inhibition” value was inactive: -2.93%.
For `Cc1ccc(OCc2nc(C#N)c(N3CCCCC3)o2)cc1`, the Potency was active: 28.2 µM.
`O=C(NCc1ccco1)C(=O)NCC1OCCN1S(=O)(=O)c1cc(F)ccc1F` (stereo unspecified) was tested, and the Potency was inconclusive: 79.4 µM [inhibitor, single point].
`CCCOc1ccc([N+](=O)[O-])c(N)c1` was tested, and the “activity change, negative = inhibition” value was inactive: -10.8%.
For `Cc1cc(Cl)c(S(=O)(=O)Nc2cccc(O)c2)cc1OCC(N)=O`, the Potency was inconclusive: 89.1 µM [inhibitor, single point].
For `CC1(C)CC2CC(C)(CN2CC(O)c2ccccc2)C1` (stereo unspecified), the Potency was inconclusive: 44.7 µM [inhibitor, partial curve].
In the case of `O=C(O)c1cn[nH]c1-n1cnnn1`, the “activity change, negative = inhibition” value is reported as inactive: -1.06%.
With `CCOC(=O)C1CCCN(C(=O)COC(=O)C2=COCCO2)C1` (stereo unspecified) the Potency was inconclusive: 89.1 µM [inhibitor, single point].
For `CC(=O)Nc1ccc(NC(=O)C2C3C=CC(C3)C2C(=O)O)cc1` (stereo unspecified), the Potency was inconclusive: 89.1 µM [inhibitor, single point].
With `O=C(/C=C/c1cccs1)c1cc(Br)ccc1OC(=O)N1CCOCC1` the Potency was inconclusive: 44.7 µM [inhibitor, partial curve].
For `COC(=O)C1=C(C)N(Cc2ccccc2)C(=S)N[C@H]1c1ccccc1`, the Potency was inconclusive: 70.8 µM [inhibitor, single point] and inconclusive: 31.6 µM [inhibitor, full curve].
For `CCOC(=O)c1[nH]c(C)c(C(=O)OCC(=O)N2CCc3ccccc32)c1C`, the Potency was inconclusive: 89.1 µM [inhibitor, single point].
For `CC1=NC(=O)C(N=Nc2cccc(C(=O)O)c2)N1c1ccccc1` (stereo unspecified), the Potency was active: 50.1 µM.
`Cc1ccc(/C=c2\sc3n(c2=O)CN(c2ccc(Br)cc2)CN=3)o1` was tested, and the “activity change, negative = inhibition” value was inactive: -22.1%.
`Cn1nc(C(=O)NC2CCCCC2)c2ccccc2c1=O` was tested, and the Potency was inconclusive: 89.1 µM [inhibitor, single point].
With `CC(C)(C)n1ncc2c(=O)n(CC(=O)N3CCN(c4ccccc4)CC3)cnc21` the “activity change, negative = inhibition” value was inactive: 3.21%.
With `O=C(Nc1ccccc1)c1ccc(-c2ccccc2Cl)o1` the “activity change, negative = inhibition” value was inactive: -3.54%.
In the case of `CCc1ccc(S(=O)(=O)c2nnn3c2nc(NCc2ccccc2)c2cc(Cl)ccc23)cc1`, the “activity change, negative = inhibition” value is reported as inactive: 3.28%.
For `Cc1nc2ccc([N+](=O)[O-])cc2c(=O)n1Cc1ccc(F)cc1`, the Potency was inconclusive: 100 µM [inhibitor, single point].
With `CN(CC(=O)Nc1cccc(F)c1)C(=O)c1ccc(COc2ccccc2)cc1` the “activity change, negative = inhibition” value was inactive: -9.01%.
`O=[N+]([O-])c1ccc(S(=O)(=O)N/N=C/c2ccc3c(c2)OCO3)cc1` was tested, and the Potency was inconclusive: 50.1 µM [inhibitor, partial curve].
With `COc1ccc(NS(=O)(=O)c2ccc(NC(=S)NC(=O)c3ccc(F)cc3)cc2)nn1` the Potency was inconclusive: 100 µM [inhibitor, single point].
For `Cc1nc2ccc(NC3=NCCCCC3)cc2s1`, the Potency was inconclusive: 70.8 µM [inhibitor, partial curve].
`Cc1ccc(O)c(-c2n[nH]c3c2C(c2ccc(F)cc2)N(Cc2ccco2)C3=O)c1` (stereo unspecified) was tested, and the Potency was inconclusive: 39.8 µM [inhibitor, partial curve].
`COc1ccc(-n2c(COc3ccc4ccccc4c3)nnc2SCC(=O)NCc2ccco2)cc1` was tested, and the Potency was inconclusive: 79.4 µM [inhibitor, single point].
`COC(=O)c1cc(C(=O)OC)n(Cc2ccc(C)cc2)c1C` was tested, and the Potency was inconclusive: 50.1 µM [inhibitor, partial curve].
For `Cc1cccc(CN2C(=O)N/C(=C/c3cc(C)n(-c4cc(C)ccn4)c3C)C2=O)c1`, the Potency was inconclusive: 44.7 µM [inhibitor, partial curve].
For `COc1ccc(N2CCN(CCCNC(=S)Nc3c(C)cccc3C)CC2)cc1`, the Potency was inconclusive: 39.8 µM [inhibitor, partial curve].
`CCOc1ccc(NC(=O)CSc2oc(-c3ccc(C)cc3)nc2S(=O)(=O)c2ccc(C)cc2)cc1` was tested, and the Potency was inconclusive: 89.1 µM [inhibitor, single point].
With `COc1cccc(C(=O)Oc2cc(-c3ccccc3)no2)c1` the Potency was inconclusive: 89.1 µM [inhibitor, single point].
`COc1ccc(-c2nc(CS(=O)CC(=O)NCc3ccc4c(c3)OCO4)c(C)o2)cc1OC` (stereo unspecified) was tested, and the Potency was inconclusive: 79.4 µM [inhibitor, single point].
For `OC(COc1cccc2ccccc12)CN1CCN(c2ccccc2Cl)CC1` (stereo unspecified), the “activity change, negative = inhibition” value was inactive: -20.1%.
In the case of `c1ccc(-c2ccc(OCCCn3cncn3)cc2)cc1`, the Potency is reported as active: 56.2 µM.
For `Cc1occc(=O)c1OC(=O)Nc1ccccc1`, the Potency was inconclusive: 89.1 µM [inhibitor, single point].
With `CC(C)c1ccc(NC(=O)Cc2cn(C)c3ccccc23)cc1` the Potency was inconclusive: 35.5 µM [inhibitor, partial curve].
For `CCc1cc(OCCCCNCc2ccccc2)ccc1Cl`, the Potency was inconclusive: 89.1 µM [inhibitor, single point].
